In PubChem BioAssay AID485281 (National Center for Advancing Translational Sciences (NCATS), 2010):
In all, about 350,000 compounds went through this assay and about 260 (0.074%) were called active. This list was built around the results that the source calls inconclusive (neither active nor inactive); the mix of calls is not that of the screen. Calls come from the whole dose curve; as a rule, active = well fitted inhibition curve with a large enough effect; inconclusive = small, poorly fitted or top-dose-only effect; inactive = no such curve, though single readings can be large or run the other way. Where the call is inconclusive, the potency comes from a doubtful curve fit.

These compounds were tested against Ferritin light chain (Equus caballus) (UniProt P02791) (assay: qHTS Assay for Identification of Novel General Anesthetics). Settings: apoferritin/1-aminoanthracene competitive binding, fluorescence; series mostly up to 77.5 µM.
UniProt P02791, sequence (P02791 whole entry, looked up): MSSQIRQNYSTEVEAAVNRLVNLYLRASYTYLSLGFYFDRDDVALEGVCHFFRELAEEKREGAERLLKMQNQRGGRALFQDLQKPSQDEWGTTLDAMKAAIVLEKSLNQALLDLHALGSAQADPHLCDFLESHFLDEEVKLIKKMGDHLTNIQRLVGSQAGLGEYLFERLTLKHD
In short: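 10 uM apoferritin + 50% sat. 1-AMA, PBS; cpd 10 min RT; Ex380/Em535 endpoint; normalized to free probe vs complex; 4-param Hill fit; propofol titration as pos. ctrl.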
Note: nearly all actives have a fitted effect of over 20% in size.
Potency is the fitted concentration of half-maximal effect; tags give direction and shape of the fitted curve.

Potency, inconclusive:
Nc1nnc(Cc2ccccc2F)s1 39.8 µM [inhibitor, single point]
CCCC(=O)NC(=S)Nc1cccc(C(C)=O)c1 35.5 µM [inhibitor, partial curve]
COC(C(=O)Nc1ccccc1F)c1ccccc1 (centres undefined) 17.8 µM [inhibitor, partial curve]
CC(C)c1cnc2c(c1SCc1ccc([N+](=O)[O-])cc1)c(=O)n(C)c(=O)n2C 7.08 µM [inhibitor, partial curve]
O=c1n(Cc2ccccc2)nc2n1-c1ccccc1OC2 25.1 µM [inhibitor, partial curve]
O=C1OCCC1Sc1nc2ccccc2n1-c1ccccc1 (centres undefined) 50.1 µM [inhibitor, single point]
COc1ccccc1C1C2CCCCC2(O)CCN1CC(=O)Nc1ccccc1 (centres undefined) 35.5 µM [inhibitor, partial curve]
N#Cc1c(N)nc2c(c1N)CC(=O)N2c1ccc(Cl)cc1 39.8 µM [inhibitor, single point]
O=C(c1ccc(Cl)cc1)C1CCN(Cc2ccccc2)CC1 50.1 µM [inhibitor, single point]
O=C(NCc1nc2ccccc2[nH]1)C1=C[C@H](c2ccc(C(F)(F)F)cc2)C[C@H](OCc2ccc(CO)cc2)O1 2.51 µM [inhibitor, full curve]
Oc1ccc2cc(Br)ccc2c1CN1CCCC1 22.4 µM [inhibitor, partial curve]
COc1ccc(C(CC(=O)c2ccccc2)CC(=O)c2ccccc2)cc1OC 28.2 µM [inhibitor, partial curve]
CCOc1cc(C2C(C(=O)c3ccc(C)o3)=C(O)C(=O)N2CCc2ccccc2)ccc1O (centres undefined) 31.6 µM [inhibitor, single point]
O=C(NC(=S)NCCC1=CCCCC1)c1ccco1 31.6 µM [inhibitor, partial curve]
O=C1NC(=S)SC1=C1CCCCCC1 50.1 µM [inhibitor, single point]
CCC1=C([N+](=O)[O-])C(c2ccc3c(c2)OCO3)NC(=O)N1 (centres undefined) 22.4 µM [inhibitor, partial curve]
Cn1nc(NC(=O)CC23CC4CC(CC(C4)C2)C3)c2c(F)cccc21 4.47 µM [inhibitor, full curve, poor fit]
Cc1ccc(CN(C)C(=O)c2cc(COc3ccc(F)cc3Cl)on2)o1 14.1 µM [inhibitor, partial curve]
Cc1cc(C)cc(OC(=O)c2cc(-c3ccc4c(c3)OCCO4)on2)c1 12.6 µM [inhibitor, partial curve]
Cc1ccc(S(=O)(=O)N2CCN(C(=O)COC(=O)c3cc(C)oc3C)CC2)cc1 25.1 µM [inhibitor, partial curve]
CCCCC(=O)Nc1ccc2c3c(cccc13)CC2 50.1 µM [inhibitor, single point]
Cc1ccc(OCC(=O)Nc2ccc(CN3CCOCC3)cc2)cc1 28.2 µM [inhibitor, partial curve]
Cc1cccc(C(=O)Nc2nnc(S(=O)(=O)N3CCC(C)CC3)s2)c1 31.6 µM [inhibitor, single point]
COc1ccc(N(C(=O)c2ccncc2)S(=O)(=O)c2ccc(Cl)cc2)cc1 15.8 µM [inhibitor, partial curve]
CCCN(CC1CC1)C(=S)Nc1ccc(C(C)=O)cc1 50.1 µM [inhibitor, single point]
Cc1cccc(OCC(=O)OCc2cc(=O)n3nc(C4CC4)sc3n2)c1 20 µM [inhibitor, partial curve]
O=C1C2C3C=CC(CC3)C2C(=O)N1c1ccccc1 (centres undefined) 14.1 µM [inhibitor, partial curve]
COc1ccc(C(=O)N(Cc2ccco2)Cc2cccs2)c(O)c1 28.2 µM [inhibitor, single point]
COc1ccc(C(=O)NC(=S)Nc2cccc3ncccc23)cc1[N+](=O)[O-] 25.1 µM [inhibitor, single point]
CC(=O)c1ccc(N(C(=O)Cc2c[nH]c3ccccc23)C(C(=O)NC2CCCCC2)c2cccs2)cc1 (centres undefined) 22.4 µM [inhibitor, partial curve]
COc1ccc(-c2cnnn2-c2ccc(NC(=O)c3ccco3)cc2)cc1OC 25.1 µM [inhibitor, partial curve]
CCOc1ccc(C(=O)/C=C/c2cc(OC)c(OC)c(OC)c2)cc1 39.8 µM [inhibitor, single point]
C=COCCNC(=O)Nc1ccc(Cl)c(Cl)c1 17.8 µM [inhibitor, partial curve]

Potency, inactive:
Cn1c(=O)c([N+](=O)[O-])c(NCc2ccccc2)c2ccccc21
CCCOc1ccc(C2C(C(=O)c3cc4ccccc4o3)=C(O)C(=O)N2c2cc(C)on2)cc1 (centres undefined)
O=C(Nc1ccc(F)cc1F)c1cc2nc3c(c(C(F)(F)F)n2n1)CCCC3
CCN1C/C(=C/c2cccs2)c2nc3ccccc3c(C(=O)O)c2C1
CCOC(=O)C1=C(N)Oc2cc(O)ccc2C1c1ccc(Br)cc1 (centres undefined)
COc1ccc(COC(=O)NC2CCN(S(=O)(=O)c3ccc(OC)cc3)CC2)cc1
CCCCCCCCCCCCCCCCOC[C@H](COP(=O)([O-])OCC[N+](C)(C)C)OC(=O)NC
CC(=O)N1CCc2cc(S(=O)(=O)C(C)CC(=O)NCc3ccc(C)o3)ccc21 (centres undefined)
Cc1nnc(NC(=O)CSc2nnc(-c3ccoc3C)n2CC(C)C)s1
Cc1[nH]nc2c1-c1nc3ccccc3nc1C(C)(C)C2
C=CCn1nnnc1-c1cccc(Cl)c1
